Sequences with one replicate were seen in a single cluster, so their values are uncertain.
system: ATP; assay: switch fluorescence ratio, 500 uM ATP over buffer (Cy3 cluster intensity, sum of 5 cycles each) (fold (ratio)); higher = stronger signal-on switching upon ATP binding; sequences stand for … in TCGTCGGCAGCGTCAGATGTGTATAAGAGACAGTTTTTTTTTTTTTTTTTTTTTTTTT…TC; settings: aptamer strand: ATP DNA aptamer (quencher-CACCTGGGGGAGTATTGCGGAGGAAGG + anchor), 100 nM annealed; ATP concentration: 500 uM; one replicate
Outline: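 Clusters with intensities outside 100-1000 RFU were excluded. The remaining Cy3-labelled switching-strand clusters on a modified Illumina MiSeq flow-cell had been annealed to 100 nM quencher-labelled ATP aptamer and imaged in selection buffer, then after 15 min with 500 uM ATP at 22 °C, for five cycles separated by NaOH stripping and re-annealing. The fluorescence ratio, averaged per switch-domain sequence, is each cluster's summed target-cycle Cy3 intensity over its summed buffer-cycle Cy3 intensity.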
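Further: ATP exposure 15 min at 22 °C before imaging.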

Sequence	switch fluorescence ratio
ACTTCTAGAT	1.01
ACTTCTGCCT	1.04
ACTTGGAACA	1.04
ACTTGGGGAT	1.01
ACTTGGGTAC	3.4
ACTTGGTCCC	1.02
ACTTGTATCA	0.973
ACTTGTCTAA	1.05
ACTTTAAAGG	1.4
ACTTTAGCTT	1.04
ACTTTATGTC	1.06
ACTTTCCCGT	1.15
ACTTTCTTTG	0.967
ACTTTCTTTT	0.952
ACTTTGGTTG	0.994
ACTTTTATAT	0.985
ACTTTTCGCC	1.09
AGAAAAAAA	0.979
AGAAACGTGC	1.11
AGAAACTGTG	1.03
AGAAAGAAAG	1.02
AGAAAGACGA	1.03
AGAAAGCTGT	0.953
AGAAAGTCGG	1.01
AGAAAGTGTT	0.98

Sequence	switch fluorescence ratio
AGAAAGTTGC	1.08
AGAACAAGAG	1.06
AGAACCATTA	0.958
AGAACCTCAG	1.01
AGAACGCCTG	1.03
AGAACTTTA	1.04
AGAAGACTGG	1.03
AGAAGCGGGT	0.983
AGAAGGAGGA	0.988
AGAAGTCTGC	1.01
AGAAGTTCGG	1.05
AGAAGTTCT	0.956
AGAATAGACA	1.01
AGAATAGTGT	1.01
AGAATATAGT	0.983
AGAATATGCA	1
AGAATCCAAA	1.03
AGAATCGGG	0.988
AGAATCGTGT	1.04
AGAATCTTAC	1.34
AGAATGAGCA	0.994
AGAATGATAT	1.01
AGAATGATGT	1.01
AGAATGTTAT	1.02
AGAATTAATG	0.981

Sequence	switch fluorescence ratio
AGAATTATTA	1.01
AGAATTCTCG	0.978
AGAATTGAGC	1.01
AGAATTTTAC	1.03
AGAATTTTGT	1.11
AGACACGGCG	0.971
AGACAGACAC	1.14
AGACAGTCAT	0.976
AGACCAGCG	1.01
AGACCATATG	1.01
AGACCATCCT	1.34
AGACCCTCAC	1.08
AGACCGGC	1.02
AGACCTGTTT	1
AGACCTTGAG	0.992
AGACGTCTAA	1.04
AGACTCCTCT	1.05
AGACTCTAGA	1.03
AGACTGACGT	1.25
AGACTGCGGA	0.982
AGACTGCTTC	0.92
AGACTGTAAT	1.05
AGAGAAAATG	0.96
AGAGACAGTT	0.975
AGAGACGCAA	5.56

Sequence	switch fluorescence ratio
AGAGACGGAG	0.966
AGAGAGCGAT	0.973
AGAGAGCGGG	1
AGAGATGAAG	1
AGAGATTCCC	1.03
AGAGCAGAGG	1
AGAGCCTCGG	0.942
AGAGCGGGCA	1.07
AGAGCGTGAT	0.984
AGAGCTGGAT	1.01
AGAGGACATT	1.03
AGAGGATTTC	0.993
AGAGGCACGG	1.03
AGAGGCATGT	0.966
AGAGGGAAAG	0.972
AGAGGGAGGT	0.987
AGAGGGGTGG	0.954
AGAGGGTCAA	1.06
AGAGGGTCAG	0.983
AGAGGGTCGA	1.01
AGAGTACCGG	0.934
AGAGTACTCC	1.07
AGAGTAGTAG	0.974
AGAGTCAGAG	0.983
AGAGTGGGTC	0.925
